Laboratory results taken from doi:10.1101/2020.07.17.209288 (2020).

Molecular target: Spike protein S1 […] (Severe acute respiratory syndrome …)
Experiment: ELISA

B1: Neuropilin-1 ECD (protein)
chain: not shown
Q: Which Kd does the source give for B1 here?
A: ~166 nM
